# Experimental data reported in the supplement of paper PMC8728848.
# This is one part of the list.
# B1: DC-SIGN (Canis lupus), XP_853402 (protein)
# chain: AGLCRPCPWKWELFQESCYFFSQTQNTWKESISACQNLRAQLVIINSTEEQKFLKSWNTRNNQRTWIGLSDHHNEGSWKWVDNTPLQLSFWKEGEPNNHGDEDCVELYSDGWNDNRCSTENFWICKKPSSPCPGPGLNDIFEAQKIEWHE
# What was measured:
# Test in all cases: glycan array binding signal (z-score within array); higher = stronger binding
# Settings in all cases: glycan notation: IUPAC condensed, linker removed
# [1] = molecular target: Fuc(a1-3)[Gal(b1-4)]Glc6S
# Method in brief: (§1)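 The Consortium for Functional Glycomics database supplied 3228 glycan arrays, of which those lacking an available protein sequence were dropped. The binding signal, a within-array Z-score, was averaged across arrays of the same protein sequence and across linkers. Negative scores can be read as non-binding.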
# [2] = molecular target: Fuc(a1-3)[Gal(b1-4)]GlcNAc
# Method in brief: as §1
# [3] = molecular target: Fuc(a1-3)[Gal(b1-4)]GlcNAc(b1-2)Man(a1-3)[Fuc(a1-3)[Gal(b1-4)]GlcNAc(b1-2)Man(a1-6)]Man(b1-4)GlcNAc(b1-4)GlcNAc
# Method in brief: as §1
# [4] = molecular target: Fuc(a1-3)[Gal(b1-4)]GlcNAc(b1-2)Man(a1-6)[Gal(b1-4)GlcNAc(b1-2)Man(a1-3)]Man(b1-4)GlcNAc(b1-4)GlcNAc
# Method in brief: as §1
# [5] = molecular target: Fuc(a1-3)[Gal(b1-4)]GlcNAc(b1-3)Gal(b1-3)[Fuc(a1-4)]GlcNAc
# Method in brief: as §1
# [6] = molecular target: Fuc(a1-3)[Gal(b1-4)]GlcNAc(b1-4)Gal(b1-4)[Fuc(a1-3)]GlcNAc
# Method in brief: as §1
# [7] = molecular target: Fuc(a1-3)[Gal(b1-4)]GlcNAc(b1-4)Gal(b1-4)[Fuc(a1-3)]GlcNAc(b1-4)Gal(b1-4)[Fuc(a1-3)]GlcNAc
# Method in brief: as §1
# [8] = molecular target: Fuc(a1-3)[Gal(b1-4)]GlcNAc6S
# Method in brief: as §1
# [9] = molecular target: Fuc(a1-3)[Gal3S(b1-4)]Glc6S
# Method in brief: as §1
# [10] = molecular target: Fuc(a1-3)[Gal3S(b1-4)]GlcNAc
# Method in brief: as §1
# [11] = molecular target: Fuc(a1-3)[Gal3S(b1-4)]GlcNAc6S
# Method in brief: as §1
# [12] = molecular target: Fuc(a1-3)[GalNAc(b1-4)]GlcNAc
# Method in brief: as §1
# [13] = molecular target: Fuc(a1-3)[Neu5Ac(a2-3)]Gal(b1-4)GlcNAc(b1-3)GalNAc
# Method in brief: as §1
# Fuc(a1-4)GlcNAc = molecular target: Fuc(a1-4)GlcNAc
# Method in brief: as §1
# Fuc(b1-3)GlcNAc = molecular target: Fuc(b1-3)GlcNAc
# Method in brief: as §1
# Gal(a1-2)Gal = molecular target: Gal(a1-2)Gal
# Method in brief: as §1
# Gal(a1-3)Gal = molecular target: Gal(a1-3)Gal
# Method in brief: as §1
# Gal(a1-3)Gal(b1-3)GlcNAc = molecular target: Gal(a1-3)Gal(b1-3)GlcNAc
# Method in brief: as §1
# Gal(a1-3)Gal(b1-4)Glc = molecular target: Gal(a1-3)Gal(b1-4)Glc
# Method in brief: as §1
# Gal(a1-3)Gal(b1-4)GlcNAc = molecular target: Gal(a1-3)Gal(b1-4)GlcNAc
# Method in brief: as §1
# [14] = molecular target: Gal(a1-3)Gal(b1-4)[Fuc(a1-3)]GlcNAc
# Method in brief: as §1
# [15] = molecular target: Gal(a1-3)Gal(b1-4)[Fuc(a1-3)]GlcNAc(b1-2)Man(a1-3)[Gal(a1-3)Gal(b1-4)[Fuc(a1-3)]GlcNAc(b1-2)Man(a1-6)]Man(b1-4)GlcNAc(b1-4)GlcNAc
# Method in brief: as §1
# Gal(a1-3)GalNAc = molecular target: Gal(a1-3)GalNAc
# Method in brief: as §1
# [16] = molecular target: Gal(a1-3)[Gal(a1-4)]Gal(b1-4)GlcNAc
# Method in brief: as §1
# Gal(a1-4)Gal(b1-4)Glc = molecular target: Gal(a1-4)Gal(b1-4)Glc
# Method in brief: as §1
# Gal(a1-4)Gal(b1-4)GlcNAc = molecular target: Gal(a1-4)Gal(b1-4)GlcNAc
# Method in brief: as §1
# [17] = molecular target: Gal(a1-4)Gal(b1-4)GlcNAc(b1-3)Gal(b1-4)Glc
# Method in brief: as §1
# Gal(a1-4)GlcNAc = molecular target: Gal(a1-4)GlcNAc
# Method in brief: as §1
# Gal(a1-6)Glc = molecular target: Gal(a1-6)Glc
# Method in brief: as §1
# Gal(b1-2)Gal = molecular target: Gal(b1-2)Gal
# Method in brief: as §1
# Gal(b1-3)Gal = molecular target: Gal(b1-3)Gal
# Method in brief: as §1
# Gal(b1-3)Gal(b1-4)GlcNAc = molecular target: Gal(b1-3)Gal(b1-4)GlcNAc
# Method in brief: as §1
# [18] = molecular target: Gal(b1-3)Gal(b1-4)GlcNAc(b1-2)Man(a1-3)[Gal(b1-3)Gal(b1-4)GlcNAc(b1-2)Man(a1-6)]Man(b1-4)GlcNAc(b1-4)GlcNAc
# Method in brief: as §1
# Gal(b1-3)GalNAc = molecular target: Gal(b1-3)GalNAc
# Method in brief: as §1
# [19] = molecular target: Gal(b1-3)GalNAc(a1-3)[Fuc(a1-2)]Gal(b1-4)Glc
# Method in brief: as §1
# [20] = molecular target: Gal(b1-3)GalNAc(a1-3)[Fuc(a1-2)]Gal(b1-4)GlcNAc
# Method in brief: as §1
# [21] = molecular target: Gal(b1-3)GalNAc(b1-3)Gal(a1-4)Gal(b1-4)Glc
# Method in brief: as §1
# [22] = molecular target: Gal(b1-3)GalNAc(b1-4)Gal(b1-4)Glc
# Method in brief: as §1
# [23] = molecular target: Gal(b1-3)GalNAc(b1-4)[Neu5Ac(a2-3)]Gal(b1-4)Glc
# Method in brief: as §1
# Gal(b1-3)GlcNAc = molecular target: Gal(b1-3)GlcNAc
# Method in brief: as §1
# [24] = molecular target: Gal(b1-3)GlcNAc(b1-2)Man(a1-3)[Gal(b1-3)GlcNAc(b1-2)Man(a1-6)]Man(b1-4)GlcNAc(b1-4)GlcNAc
# Method in brief: as §1
# [25] = molecular target: Gal(b1-3)GlcNAc(b1-2)Man(a1-3)[Gal(b1-3)GlcNAc(b1-2)Man(a1-6)]Man(b1-4)GlcNAc(b1-4)[Fuc(a1-6)]GlcNAc
# Method in brief: as §1
# [26] = molecular target: Gal(b1-3)GlcNAc(b1-3)Gal(b1-3)GlcNAc
# Method in brief: as §1
# [27] = molecular target: Gal(b1-3)GlcNAc(b1-3)Gal(b1-4)Glc
# Method in brief: as §1
# [28] = molecular target: Gal(b1-3)GlcNAc(b1-3)Gal(b1-4)GlcNAc
# Method in brief: as §1
binder,measurement,setting,value
B1,glycan array binding signal (z-score),[1],0.089
same,glycan array binding signal (z-score),[2],-0.181
same,glycan array binding signal (z-score),[3],-0.157
same,glycan array binding signal (z-score),[4],-0.15
same,glycan array binding signal (z-score),[5],0.664
same,glycan array binding signal (z-score),[6],0.044
same,glycan array binding signal (z-score),[7],-0.198
same,glycan array binding signal (z-score),[8],-0.096
same,glycan array binding signal (z-score),[9],0.6
same,glycan array binding signal (z-score),[10],0.093
same,glycan array binding signal (z-score),[11],-0.128
same,glycan array binding signal (z-score),[12],-0.178
same,glycan array binding signal (z-score),[13],1.01
same,glycan array binding signal (z-score),Fuc(a1-4)GlcNAc,-0.225
same,glycan array binding signal (z-score),Fuc(b1-3)GlcNAc,-0.096
same,glycan array binding signal (z-score),Gal(a1-2)Gal,-0.067
same,glycan array binding signal (z-score),Gal(a1-3)Gal,-0.079
same,glycan array binding signal (z-score),Gal(a1-3)Gal(b1-3)GlcNAc,-0.29
same,glycan array binding signal (z-score),Gal(a1-3)Gal(b1-4)Glc,-0.285
same,glycan array binding signal (z-score),Gal(a1-3)Gal(b1-4)GlcNAc,-0.208
same,glycan array binding signal (z-score),[14],-0.226
same,glycan array binding signal (z-score),[15],-0.154
same,glycan array binding signal (z-score),Gal(a1-3)GalNAc,0.129
same,glycan array binding signal (z-score),[16],-0.15
same,glycan array binding signal (z-score),Gal(a1-4)Gal(b1-4)Glc,-0.302
same,glycan array binding signal (z-score),Gal(a1-4)Gal(b1-4)GlcNAc,-0.198
same,glycan array binding signal (z-score),[17],-0.285
same,glycan array binding signal (z-score),Gal(a1-4)GlcNAc,-0.08
same,glycan array binding signal (z-score),Gal(a1-6)Glc,-0.315
same,glycan array binding signal (z-score),Gal(b1-2)Gal,-0.033
same,glycan array binding signal (z-score),Gal(b1-3)Gal,-0.173
same,glycan array binding signal (z-score),Gal(b1-3)Gal(b1-4)GlcNAc,-0.309
same,glycan array binding signal (z-score),[18],-0.295
same,glycan array binding signal (z-score),Gal(b1-3)GalNAc,-0.196
same,glycan array binding signal (z-score),[19],-0.225
same,glycan array binding signal (z-score),[20],-0.239
same,glycan array binding signal (z-score),[21],-0.115
same,glycan array binding signal (z-score),[22],-0.216
same,glycan array binding signal (z-score),[23],-0.255
same,glycan array binding signal (z-score),Gal(b1-3)GlcNAc,-0.104
same,glycan array binding signal (z-score),[24],-0.111
same,glycan array binding signal (z-score),[25],0.117
same,glycan array binding signal (z-score),[26],-0.202
same,glycan array binding signal (z-score),[27],-0.172
same,glycan array binding signal (z-score),[28],-0.331
